Measured values: article PMC3379983
These are yes or no findings as the source states them, for the method shown. For part of these data: In cells and extracts the contact can be indirect. Some binding calls cover weakened binding; strength is not graded here. For part of these data: Sequences can lack the tags named with a protein.

The chains behind the UniProt entries cited, without tags or fusion partners. Where a name states a change or a piece, a line headed by the entry shows the natural chain unless it says otherwise. Residues count along the entry.
UniProt Q62940: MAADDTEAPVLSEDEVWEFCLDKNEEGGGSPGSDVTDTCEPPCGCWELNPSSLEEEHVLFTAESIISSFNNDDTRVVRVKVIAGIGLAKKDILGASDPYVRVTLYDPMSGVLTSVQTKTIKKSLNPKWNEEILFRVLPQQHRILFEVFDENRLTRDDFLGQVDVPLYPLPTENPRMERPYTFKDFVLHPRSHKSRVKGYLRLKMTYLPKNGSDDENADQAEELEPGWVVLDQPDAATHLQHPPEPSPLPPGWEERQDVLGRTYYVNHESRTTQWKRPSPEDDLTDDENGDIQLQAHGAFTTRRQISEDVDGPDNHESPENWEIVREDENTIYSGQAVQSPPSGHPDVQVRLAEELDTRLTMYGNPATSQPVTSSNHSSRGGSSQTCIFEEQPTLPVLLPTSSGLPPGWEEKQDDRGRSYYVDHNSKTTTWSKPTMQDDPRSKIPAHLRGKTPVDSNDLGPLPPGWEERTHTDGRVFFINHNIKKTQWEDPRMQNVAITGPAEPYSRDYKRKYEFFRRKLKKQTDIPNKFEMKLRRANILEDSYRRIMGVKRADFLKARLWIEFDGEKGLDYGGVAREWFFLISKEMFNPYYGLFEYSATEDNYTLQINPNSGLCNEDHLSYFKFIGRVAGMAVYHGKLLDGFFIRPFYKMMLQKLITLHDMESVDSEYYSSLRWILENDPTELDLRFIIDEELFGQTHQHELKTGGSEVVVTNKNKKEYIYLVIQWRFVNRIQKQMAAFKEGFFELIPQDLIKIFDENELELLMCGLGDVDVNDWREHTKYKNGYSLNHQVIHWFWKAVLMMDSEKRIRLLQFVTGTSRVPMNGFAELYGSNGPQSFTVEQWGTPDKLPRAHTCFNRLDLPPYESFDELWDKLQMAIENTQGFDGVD
UniProt P46935: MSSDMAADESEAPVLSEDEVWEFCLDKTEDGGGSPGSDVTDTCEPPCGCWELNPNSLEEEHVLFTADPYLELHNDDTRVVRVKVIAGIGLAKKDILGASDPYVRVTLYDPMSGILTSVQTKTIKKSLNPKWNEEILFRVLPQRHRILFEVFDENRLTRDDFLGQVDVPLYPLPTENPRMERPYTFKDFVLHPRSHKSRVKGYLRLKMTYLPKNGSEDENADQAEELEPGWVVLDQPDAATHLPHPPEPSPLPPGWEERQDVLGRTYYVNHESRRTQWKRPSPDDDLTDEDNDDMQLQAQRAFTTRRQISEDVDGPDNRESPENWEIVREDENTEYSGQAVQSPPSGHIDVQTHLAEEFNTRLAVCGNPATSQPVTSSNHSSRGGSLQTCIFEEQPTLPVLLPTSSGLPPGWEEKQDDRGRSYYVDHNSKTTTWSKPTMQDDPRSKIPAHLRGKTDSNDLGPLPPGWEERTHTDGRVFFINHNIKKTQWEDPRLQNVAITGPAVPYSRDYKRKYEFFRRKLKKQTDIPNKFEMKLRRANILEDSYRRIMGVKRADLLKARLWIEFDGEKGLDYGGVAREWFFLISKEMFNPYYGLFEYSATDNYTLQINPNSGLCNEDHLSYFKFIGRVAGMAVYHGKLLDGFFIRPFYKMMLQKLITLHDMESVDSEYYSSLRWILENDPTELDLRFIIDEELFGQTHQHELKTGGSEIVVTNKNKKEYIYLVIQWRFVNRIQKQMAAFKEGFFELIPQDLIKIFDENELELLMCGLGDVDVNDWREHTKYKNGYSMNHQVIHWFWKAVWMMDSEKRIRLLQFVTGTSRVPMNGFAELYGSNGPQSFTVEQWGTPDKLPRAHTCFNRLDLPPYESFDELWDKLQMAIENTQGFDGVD
GST-Nedd4 fusion protein (Nedd4 aa 34-887): residues 34-887 of P46935

How the values were obtained:
[1] = biological target: T1, GAL4BD fused to mouse MAK-V protein (aa 26-714; pPC97-MAK-V) (mouse) (UniProt O88866); assay: two-hybrid; yeast, GAL4BD and GAL4AD chimeras, HIS3 reporter, growth on minimal medium with 60 mM 3AT
T1 sequence: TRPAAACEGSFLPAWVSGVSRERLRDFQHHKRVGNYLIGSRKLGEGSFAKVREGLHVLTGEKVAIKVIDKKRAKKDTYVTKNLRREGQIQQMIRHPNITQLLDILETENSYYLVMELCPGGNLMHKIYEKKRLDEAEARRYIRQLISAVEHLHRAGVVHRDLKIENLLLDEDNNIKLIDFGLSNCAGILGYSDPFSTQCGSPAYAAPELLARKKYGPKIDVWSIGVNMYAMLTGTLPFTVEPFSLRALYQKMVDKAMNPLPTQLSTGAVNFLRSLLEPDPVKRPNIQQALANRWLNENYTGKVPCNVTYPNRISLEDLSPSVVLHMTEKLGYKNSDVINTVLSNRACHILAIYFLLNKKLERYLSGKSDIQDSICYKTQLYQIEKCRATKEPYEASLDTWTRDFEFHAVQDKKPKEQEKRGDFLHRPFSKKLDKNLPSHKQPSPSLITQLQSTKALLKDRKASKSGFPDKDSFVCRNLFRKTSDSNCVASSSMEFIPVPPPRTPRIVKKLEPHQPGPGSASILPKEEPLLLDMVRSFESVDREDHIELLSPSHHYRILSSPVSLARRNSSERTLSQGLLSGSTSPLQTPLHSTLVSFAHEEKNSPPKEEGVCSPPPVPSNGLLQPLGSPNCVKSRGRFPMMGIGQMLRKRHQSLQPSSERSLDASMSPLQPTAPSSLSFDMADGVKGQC

[2] = biological target: T2, GAL4BD fused to the C-terminal portion of mouse MAK-V (aa 395-714; pPC97-C-MAK-V) (mouse) (UniProt O88866); assay: as above
T2 sequence: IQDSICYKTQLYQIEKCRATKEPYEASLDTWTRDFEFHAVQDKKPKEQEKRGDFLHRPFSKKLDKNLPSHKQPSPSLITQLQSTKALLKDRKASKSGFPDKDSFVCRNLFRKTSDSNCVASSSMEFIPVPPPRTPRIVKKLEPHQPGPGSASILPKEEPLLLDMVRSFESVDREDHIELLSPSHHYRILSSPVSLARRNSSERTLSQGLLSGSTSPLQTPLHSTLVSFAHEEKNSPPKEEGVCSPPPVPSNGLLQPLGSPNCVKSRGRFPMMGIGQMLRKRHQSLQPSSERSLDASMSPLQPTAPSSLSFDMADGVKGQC

[3] = biological target: T3, GAL4BD fused to the N-terminal part of mouse MAK-V (aa 26-394; pPC97-N-MAK-V) (mouse) (UniProt O88866); assay: as above
T3 sequence: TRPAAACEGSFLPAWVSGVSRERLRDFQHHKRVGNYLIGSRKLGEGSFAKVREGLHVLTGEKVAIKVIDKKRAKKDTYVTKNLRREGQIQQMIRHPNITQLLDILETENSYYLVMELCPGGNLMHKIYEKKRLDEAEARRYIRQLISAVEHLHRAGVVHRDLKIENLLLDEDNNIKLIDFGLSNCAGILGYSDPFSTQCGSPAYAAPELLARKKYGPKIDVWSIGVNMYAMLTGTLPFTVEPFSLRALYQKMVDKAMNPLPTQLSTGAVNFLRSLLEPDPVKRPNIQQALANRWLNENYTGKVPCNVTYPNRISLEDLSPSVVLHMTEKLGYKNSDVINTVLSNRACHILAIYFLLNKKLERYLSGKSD

[4] = biological target: T4, endogenous MAK-V protein (CSML-0 cells) (mouse (endogenous in CSML-0)) (UniProt O88866); assay: co-IP; CSML-0 lysate, endogenous proteins, anti-Nedd4 or anti-MAK-V antibodies overnight at 4°C, Protein G Sepharose; control with antibodies omitted
T4 sequence: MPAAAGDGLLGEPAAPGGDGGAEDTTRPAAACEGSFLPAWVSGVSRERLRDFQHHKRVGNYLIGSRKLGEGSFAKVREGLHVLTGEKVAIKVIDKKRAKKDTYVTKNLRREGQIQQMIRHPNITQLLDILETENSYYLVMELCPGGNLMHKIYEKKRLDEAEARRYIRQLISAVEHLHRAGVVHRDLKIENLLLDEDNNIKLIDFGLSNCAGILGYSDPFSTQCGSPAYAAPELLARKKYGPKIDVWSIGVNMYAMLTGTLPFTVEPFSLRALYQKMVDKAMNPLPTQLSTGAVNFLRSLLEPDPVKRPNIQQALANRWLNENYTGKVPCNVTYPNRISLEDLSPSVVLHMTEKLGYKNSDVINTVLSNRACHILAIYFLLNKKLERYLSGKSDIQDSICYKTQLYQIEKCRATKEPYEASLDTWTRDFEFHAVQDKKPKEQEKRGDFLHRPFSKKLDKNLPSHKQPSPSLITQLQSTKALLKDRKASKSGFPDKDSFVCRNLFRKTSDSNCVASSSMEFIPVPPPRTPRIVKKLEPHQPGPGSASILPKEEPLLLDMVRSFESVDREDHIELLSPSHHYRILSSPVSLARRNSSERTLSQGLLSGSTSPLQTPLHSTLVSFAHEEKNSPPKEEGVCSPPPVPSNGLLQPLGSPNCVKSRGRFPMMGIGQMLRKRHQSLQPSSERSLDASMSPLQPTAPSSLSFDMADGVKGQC

[5] = biological target: T5, MAK-V-FLAG protein (C-terminally FLAG-tagged mouse MAK-V protein kinase) (mouse) (UniProt O88866); assay: co-IP; anti-FLAG M2 affinity gel precipitates from PC12TetOn lysates (induced and non-induced), blotted with anti-Nedd4 antibodies
T5 sequence: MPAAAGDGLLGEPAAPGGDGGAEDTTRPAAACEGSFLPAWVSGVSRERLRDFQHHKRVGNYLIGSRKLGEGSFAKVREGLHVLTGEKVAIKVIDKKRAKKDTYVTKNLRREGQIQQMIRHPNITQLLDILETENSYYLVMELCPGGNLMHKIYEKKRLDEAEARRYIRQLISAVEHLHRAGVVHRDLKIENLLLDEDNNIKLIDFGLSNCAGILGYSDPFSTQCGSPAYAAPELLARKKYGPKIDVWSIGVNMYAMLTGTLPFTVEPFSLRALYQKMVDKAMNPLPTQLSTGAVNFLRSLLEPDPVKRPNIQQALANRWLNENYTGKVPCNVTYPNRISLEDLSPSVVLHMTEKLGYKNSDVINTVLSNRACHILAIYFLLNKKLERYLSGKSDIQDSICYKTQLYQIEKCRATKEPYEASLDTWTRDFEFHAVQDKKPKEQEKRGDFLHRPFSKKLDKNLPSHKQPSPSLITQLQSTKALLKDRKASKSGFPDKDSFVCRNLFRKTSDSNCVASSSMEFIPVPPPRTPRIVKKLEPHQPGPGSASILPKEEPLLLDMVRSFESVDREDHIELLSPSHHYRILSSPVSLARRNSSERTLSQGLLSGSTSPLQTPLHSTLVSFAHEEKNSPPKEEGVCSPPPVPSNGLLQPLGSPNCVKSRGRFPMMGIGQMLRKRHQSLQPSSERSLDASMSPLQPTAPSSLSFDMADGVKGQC

[6] = biological target: rat E3 ubiquitin ligase Nedd4 (endogenous in PC12TetOn cells) (rat) (UniProt Q62940); assay: co-IP; lysate of doxycycline-treated PC12TetOn cells on Protein G Sepharose with immobilized anti-Nedd4 antibodies or without antibodies, blotted with anti-FLAG antibodies
[7] = biological target: GST-Nedd4 fusion protein (Nedd4 aa 34-887) (mouse) (UniProt P46935); assay: pull-down; GST or GST-Nedd4 (30 µg) immobilised on glutathione Sepharose, incubated 2 hrs at 4°C with 50 µl of MAK-V-FLAG expressing cell lysate; anti-FLAG blot; only the target purified
[8] = biological target: endogenous Nedd4 protein (CSML-0 cells) (mouse (endogenous in CSML-0)) (UniProt P46935); assay: co-IP; CSML-0 lysate, endogenous proteins, anti-Nedd4 or anti-MAK-V antibodies overnight at 4°C, Protein G Sepharose; control with antibodies omitted

“GAL4AD fused to Nedd4 aa 34-295 containing C2 and WW1 domains (pPC86-C2-WW1) (from UniProt P46935 34-295) (domain or fragment)” was tested, and the binding [1] was “binds”.

“GAL4AD fused to Nedd4 aa 34-493 containing C2 and all three WW domains (pPC86-C2-WW1-3) (from UniProt P46935 34-493) (domain or fragment)” was tested, and the binding [2] was “no binding” and the binding [3] was “binds”.

With “GAL4AD fused to Nedd4 aa 220-493 containing only three WW domains (pPC86-WW1-3) (from UniProt P46935 220-493) (domain or fragment)” the binding [1] was “no binding”.

In the case of “endogenous Nedd4 protein (CSML-0 cells) (from UniProt P46935 1-887) (enzyme)”, the binding [4] is reported as “binds”.

With “rat E3 ubiquitin ligase Nedd4 (endogenous in PC12TetOn cells) (from UniProt Q62940 1-887) (enzyme)” the binding [5] was “binds”.

B1: MAK-V-FLAG protein (C-terminally FLAG-tagged mouse MAK-V protein kinase) (enzyme, UniProt O88866 1-714)
chain: MPAAAGDGLLGEPAAPGGDGGAEDTTRPAAACEGSFLPAWVSGVSRERLRDFQHHKRVGNYLIGSRKLGEGSFAKVREGLHVLTGEKVAIKVIDKKRAKKDTYVTKNLRREGQIQQMIRHPNITQLLDILETENSYYLVMELCPGGNLMHKIYEKKRLDEAEARRYIRQLISAVEHLHRAGVVHRDLKIENLLLDEDNNIKLIDFGLSNCAGILGYSDPFSTQCGSPAYAAPELLARKKYGPKIDVWSIGVNMYAMLTGTLPFTVEPFSLRALYQKMVDKAMNPLPTQLSTGAVNFLRSLLEPDPVKRPNIQQALANRWLNENYTGKVPCNVTYPNRISLEDLSPSVVLHMTEKLGYKNSDVINTVLSNRACHILAIYFLLNKKLERYLSGKSDIQDSICYKTQLYQIEKCRATKEPYEASLDTWTRDFEFHAVQDKKPKEQEKRGDFLHRPFSKKLDKNLPSHKQPSPSLITQLQSTKALLKDRKASKSGFPDKDSFVCRNLFRKTSDSNCVASSSMEFIPVPPPRTPRIVKKLEPHQPGPGSASILPKEEPLLLDMVRSFESVDREDHIELLSPSHHYRILSSPVSLARRNSSERTLSQGLLSGSTSPLQTPLHSTLVSFAHEEKNSPPKEEGVCSPPPVPSNGLLQPLGSPNCVKSRGRFPMMGIGQMLRKRHQSLQPSSERSLDASMSPLQPTAPSSLSFDMADGVKGQC
With B1 the binding [6] was “binds” and the binding [7] was “binds”.

B2: endogenous MAK-V protein (CSML-0 cells) (enzyme, UniProt O88866 1-714)
chain: MPAAAGDGLLGEPAAPGGDGGAEDTTRPAAACEGSFLPAWVSGVSRERLRDFQHHKRVGNYLIGSRKLGEGSFAKVREGLHVLTGEKVAIKVIDKKRAKKDTYVTKNLRREGQIQQMIRHPNITQLLDILETENSYYLVMELCPGGNLMHKIYEKKRLDEAEARRYIRQLISAVEHLHRAGVVHRDLKIENLLLDEDNNIKLIDFGLSNCAGILGYSDPFSTQCGSPAYAAPELLARKKYGPKIDVWSIGVNMYAMLTGTLPFTVEPFSLRALYQKMVDKAMNPLPTQLSTGAVNFLRSLLEPDPVKRPNIQQALANRWLNENYTGKVPCNVTYPNRISLEDLSPSVVLHMTEKLGYKNSDVINTVLSNRACHILAIYFLLNKKLERYLSGKSDIQDSICYKTQLYQIEKCRATKEPYEASLDTWTRDFEFHAVQDKKPKEQEKRGDFLHRPFSKKLDKNLPSHKQPSPSLITQLQSTKALLKDRKASKSGFPDKDSFVCRNLFRKTSDSNCVASSSMEFIPVPPPRTPRIVKKLEPHQPGPGSASILPKEEPLLLDMVRSFESVDREDHIELLSPSHHYRILSSPVSLARRNSSERTLSQGLLSGSTSPLQTPLHSTLVSFAHEEKNSPPKEEGVCSPPPVPSNGLLQPLGSPNCVKSRGRFPMMGIGQMLRKRHQSLQPSSERSLDASMSPLQPTAPSSLSFDMADGVKGQC
For B2, the binding [8] was “binds”.
